According to the supplement of paper PMC5919970:
Structures can show the parent of a compound that is named as a salt. Whole data set: some 2,000 compounds, median “fractional viability relative to vehicle” near 0.91, cut for the lowest 2% near 0.045. This is one part of the list.

System: TYKNU
Test: fractional viability relative to vehicle; TYKNU is a high-grade serous ovarian cancer line; higher = less growth inhibition
Settings: 72 h
How it was run: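 TYKNU control cells or lentiCRISPRv2 knockout derivatives were plated at 500 cells per well in duplicate into drug-stamped 384-well plates holding a ~2100-compound library at 2 or 10 μM. Culture was in RPMI 1640 with 10% FBS at 37 °C in 5% CO2, with 72 h of drug treatment. Viability was measured by Cell Titer Glo luminescence, and the averaged duplicate treatment wells were normalised to duplicate control wells at the same plate position.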

[1] = 2uM, genotype: DNM1L knockout (sgDNM1L #1)
[2] = 2uM, genotype: sgCTRLA1 (non-targeting control)
[3] = 10uM, genotype: DNM1L knockout (sgDNM1L #1)
[4] = 10uM, genotype: sgCTRLA1 (non-targeting control)

| Compound | fractional viability [1] | fractional viability [2] | fractional viability [3] | fractional viability [4] |
| --- | --- | --- | --- | --- |
| Nc1ccccc1NC(=O)c1ccc(CNc2nccc(-c3cccnc3)n2)cc1 [Mocetinostat (MGCD0103)] | 0.227 | 0.276 | 0.094 | 0.118 |
| COc1cc(-c2cc(-c3ccc(N4CCNCC4)cc3)cnc2C)cc(OC)c1OC | 0.714 | 1.02 | 0.834 | 0.772 |
| Cc1ccc(S(=O)(=O)/C=C/C#N)cc1 | 0.0925 | 0.0355 | 0.0225 | 0.01 |
| CC(C)(C)OC(=O)Nc1ccc(-c2cc(C(=O)NCCCCCCC(=O)NO)no2)cc1 | 0.25 | 0.337 | 0.0725 | 0.056 |
| CC1=C(C(=O)O)N2C(=O)[C@@H](NC(=O)[C@H](N)c3ccccc3)[C@H]2SC1 [Cephalexin] | 1.06 | 1.02 | 0.936 | 0.932 |
| CC[C@H](C)C(=O)O[C@H]1C[C@H](O)C=C2C=C[C@H](C)[C@H](CC[C@@H](O)C[C@@H](O)CC(=O)O)[C@H]21 [Pravastatin sodium] | 1.05 | 1.18 | 0.886 | 1.03 |
| CO[C@H]1C[C@@H]2CC[C@@H](C)[C@@](O)(O2)C(=O)C(=O)N2CCCC[C@H]2C(=O)O[C@H]([C@H](C)C[C@@H]2CC[C@H](n3cnnn3)[C@H](OC)C2)CC(=O)[C@H](C)/C=C(\C)[C@@H](O)[C@@H](OC)C(=O)[C@H](C)C[C@H](C)/C=C/C=C/C=C/1C [Zotarolimus(ABT-578)] | 0.758 | 1.08 | 0.802 | 1.16 |
| CCCC(=O)Nc1cccc(NC(=O)c2ccccc2Br)c1 | 1.11 | 1.19 | 0.939 | 1.21 |
| COc1cc(-c2cc(-c3cccc(O)c3)cnc2N)cc(OC)c1OC | 0.792 | 0.808 | 0.513 | 0.35 |
| COc1cc2ncnc(Nc3ccc(O)c(Br)c3)c2cc1OC | 1.41 | 1.16 | 0.847 | 0.904 |
| O=C(O)c1ccc(O)c2ncccc12 | 0.788 | 1.2 | 0.651 | 1.01 |
| CC[C@@]1(O)C(=O)OCc2c1cc1n(c2=O)Cc2cc3c(CN(C)C)c(O)ccc3nc2-1 [Topotecan HCl] | 0.148 | 0.164 | 0.0758 | 0.0974 |
| Nc1nnc(-c2cccc(Cl)c2Cl)c(N)n1 [Lamotrigine] | 1.13 | 1.28 | 0.784 | 1.13 |
| CCOC(=O)N[C@@H]1CC[C@@H]2[C@@H](C1)C[C@H]1C(=O)O[C@H](C)[C@H]1[C@H]2/C=C/c1ccc(-c2cccc(F)c2)cn1 [Vorapaxar] | 0.79 | 0.886 | 0.79 | 0.624 |
| Cc1cc(Nc2cc(CN3CCOCC3)c3nc(C)c(Cc4ccc(Cl)cc4F)n3n2)n[nH]1 | 0.855 | 0.975 | 0.212 | 0.338 |
| Oc1cc(O)cc(/C=C/c2ccc(O)c(O)c2)c1 [Piceatannol] | 1.01 | 1.07 | 0.589 | 0.821 |
| O=C(NC1CC1)c1cc(-c2cccs2)on1 [Isoxazole 9 (ISX-9)] | 0.927 | 0.844 | 0.795 | 0.662 |
| Nc1nc(=O)[nH]cc1F [Flucytosine] | 1.06 | 1.06 | 1.06 | 0.991 |
| CN1CCN(c2ccc(Nc3cc(-c4cccc(-n5ccc6cc(C7CC7)cc(F)c6c5=O)c4CO)cn(C)c3=O)nc2)CC1 | 0.836 | 0.97 | 0.114 | 0.182 |
| CC(=O)O[C@]1(C(C)=O)CC[C@H]2[C@@H]3C=C(C)C4=CC(=O)CC[C@]4(C)[C@H]3CC[C@@]21C [Megestrol Acetate] | 0.975 | 1.17 | 0.874 | 1.01 |

| Compound | fractional viability [1] | fractional viability [2] | fractional viability [3] | fractional viability [4] |
| --- | --- | --- | --- | --- |
| C=C1[C@H](CO)[C@@H](O)C[C@@H]1n1cnc2c(=O)[nH]c(N)nc21 [Entecavir Hydrate] | 1.02 | 1.04 | 0.912 | 0.909 |
| CN(C)C(=O)c1cc2cnc(Nc3ccc(N4CCNCC4)cn3)nc2n1C1CCCC1 | 0.781 | 0.904 | 0.6 | 0.592 |
| S=c1[nH]cnc2nc[nH]c12 [Mercaptopurine (6-MP)] | 0.933 | 0.546 | 0.866 | 0.665 |
| NS(=O)(=O)c1ccc(NC(=O)Nc2ccc(F)cc2)cc1 | 0.947 | 1.08 | 0.768 | 1.08 |
| Cc1cccc(-c2[nH]ncc2-c2ccc3ncccc3n2)n1 | 0.98 | 1.1 | 0.778 | 1.03 |
| O=C(NCCCNc1nc(Nc2cccc(NC(=O)N3CCCC3)c2)ncc1I)c1cccs1 | 0.95 | 0.92 | 0.196 | 0.279 |
| CN(Cc1ccc(C(C)(C)C)cc1)Cc1cccc2ccccc12 [Butenafine HCl] | 1.07 | 1.2 | 0.757 | 1.1 |
| O=C(NNc1ccccc1)c1ccncc1 | 0.723 | 0.931 | 0.801 | 0.659 |
| Cc1nc2c(O)cccc2c(=O)[nH]1 | 0.9 | 0.902 | 0.954 | 0.856 |
| CC(C)n1cnc2c(NCCc3ccc(O)cc3)nc(-c3csc4ccccc34)nc21 [StemRegenin 1 (SR1)] | 0.807 | 1.02 | 0.448 | 0.697 |
| Cc1cc(F)c(Nc2ncnc3cc(OCc4ccccc4)ccc23)cc1O | 1.3 | 1.2 | 0.725 | 0.596 |
| O=c1[nH]c(=O)n([C@H]2C[C@H](O)[C@@H](CO)O2)cc1C(F)(F)F [Trifluridine] | 0.869 | 0.969 | 0.437 | 0.386 |
| Cn1cncc1[C@@](N)(c1ccc(Cl)cc1)c1ccc2c(c1)c(-c1cccc(Cl)c1)cc(=O)n2C [Tipifarnib] | 0.472 | 0.64 | 0.272 | 0.366 |
| Cc1cc(C#N)cc(C)c1Oc1nc(Nc2ccc(C#N)cc2)nc(N)c1Br [Etravirine (TMC125)] | 1.05 | 1.06 | 0.352 | 0.41 |
| NC(=O)N1c2ccccc2CC(=O)c2ccccc21 [Oxcarbazepine] | 1.03 | 1.03 | 0.734 | 0.93 |
| NC1=NCC2c3ccccc3Cc3ccccc3N12 (stereo unspecified) [Epinastine HCl] | 0.782 | 0.97 | 0.686 | 0.857 |
| Oc1nc(-c2ccc(C(F)(F)F)cc2)nc2c1CSCC2 | 1.05 | 1.19 | 0.45 | 0.746 |
| Cc1nc2ccc(NC(=O)Nc3ccnc4cccnc34)cc2o1 | 0.722 | 0.924 | 0.803 | 0.767 |
| CN(C)c1ccc(-c2nc3ncc(Cl)c(N4CCN(CC(=O)Nc5nccs5)CC4)c3[nH]2)cc1 | 1.15 | 0.937 | 0.395 | 0.714 |
